Assay [1] concerns the target VEGF. The assay is described as follows: cell-based or functional assay.
The target in assay [2] is T1, human PD-1 (ACRO, His tag) (human, UniProt Q15116 partial chain).
T1 construct: not shown: His tag
Put plainly: ELISA, human PD-1 (His tag) coated, anti-human IgG Fc-HRP. How it is done: (§1) The binding of the antibody to human PD-1 was detected by ELISA. 1 μg/mL human PD-1 (ACRO, His tag) was coated on an ELISA plate overnight and blocked. Subsequently, the plate was added with gradient dilutions of the bispecific antibody and the control antibody, incubated and washed. Then, the plate was added with HRP-labeled anti-human IgG Fc secondary antibody, incubated and washed. After TMB solution was added for color development, the OD450 absorbance value was read on a microplate reader (see Table 12). […] Subsequently, the plate was added with gradient dilutions of the sample to be tested and the control antibody, incubated and washed. Then, the plated was added with HRP-labeled anti-human IgG Fc secondary antibody, incubated and washed. After TMB solution was added for color development, the OD450 absorbance value was read on a microplate reader (see Table 13). […] (The control substances were all obtained by in-house expression and purification)

The target of assay [3] is T2, human VEGF (ACRO, His tag) (human, UniProt P15692-4 27-191, limits assumed).
T2 construct: not shown: His tag
T2 sequence (looked up): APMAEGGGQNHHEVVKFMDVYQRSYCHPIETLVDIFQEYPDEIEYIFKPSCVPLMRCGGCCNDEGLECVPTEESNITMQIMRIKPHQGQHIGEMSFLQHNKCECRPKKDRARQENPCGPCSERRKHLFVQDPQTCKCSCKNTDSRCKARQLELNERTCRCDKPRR
Put plainly: ELISA, human VEGF (His tag) coated, anti-human IgG Fc-HRP. How it is done:
as §1

For assay [4], the target named is monkey PD-1 (ACRO, His tag) (monkey, UniProt B0LAJ3 25-170). Put plainly: ELISA, monkey PD-1 (His tag) coated, anti-human IgG Fc-HRP. How it is done: The binding of candidate molecules and competitor to antigens of different species was detected by ELISA. […] The binding of antibodies to monkey PD-1 was detected by ELISA. An ELISA plate was coated with 1 μg/mL monkey PD-1 (ACRO, His tag) overnight and blocked. Subsequently, the plate was added with gradient dilutions of the sample to be tested and the control antibody, incubated and washed. Then, the plate was added with HRP-labeled anti-human IgG Fc secondary antibody, incubated and washed. After TMB solution was added for color development, the OD450 absorbance value was read on a microplate reader (see Table 15).
UniProt B0LAJ3, sequence (B0LAJ3 entry or part of it limits assumed, form in doubt): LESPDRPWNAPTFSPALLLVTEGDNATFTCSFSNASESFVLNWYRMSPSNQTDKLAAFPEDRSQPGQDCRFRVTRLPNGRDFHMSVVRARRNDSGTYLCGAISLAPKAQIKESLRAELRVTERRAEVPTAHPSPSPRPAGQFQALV

For assay [5], the target named is T3, human VEGF (Sino Biological, no label) (human, UniProt P15692-4 27-191, limits assumed).
T3 sequence (looked up): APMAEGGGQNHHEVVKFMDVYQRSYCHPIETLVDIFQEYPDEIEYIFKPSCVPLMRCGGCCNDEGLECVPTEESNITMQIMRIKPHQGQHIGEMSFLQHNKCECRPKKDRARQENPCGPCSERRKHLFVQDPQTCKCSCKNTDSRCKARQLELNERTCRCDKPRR
The assay is described as follows: dual (bridging) ELISA: human VEGF (no label) coated, antibody, then human PD-1 (His tag), anti-His-HRP. How it is done: Biological, no label) overnight, washed and blocked for 1 hour. Subsequently, the plate was added with gradient dilutions of the test antibody, incubated for 2 hours, then added with 1 μg/mL of human PD-1 (ACRO, His tag), incubated for 2 hours, washed, and incubated with HRP-labeled anti-His antibody for 1 hour. After TMB solution was added for color development, the OD450 nm absorbance value was read on a microplate reader.
Background: An ELISA detects its analyte on a solid surface through an enzyme-linked reagent.

The target in assay [6] is T4, human PD-1 (ACRO, Fc tag) (human, UniProt Q15116 partial chain).
T4 construct: not shown: Fc tag
Put plainly: competition ELISA: human PD-1 (Fc tag) coated, antibody mixed with human PD-L1 (His tag), anti-His-HRP. How it is done:
An ELISA plate was coated with 1 ug/mL of human PD-1 (ACRO, Fc tag) overnight, washed and blocked. […] Then the plate was added with HRP-labeled anti-His antibody, and incubated for 1 hour. After TMB solution was added for color development, the OD450 absorbance value was read on a microplate reader (see Table 16).

Assay [7] concerns the target T5, biotin-labeled human VEGF (ACRO, biotinylated protein) (human, UniProt P15692-4 27-191, limits assumed, biotinylated (site not stated)).
T5 sequence (looked up): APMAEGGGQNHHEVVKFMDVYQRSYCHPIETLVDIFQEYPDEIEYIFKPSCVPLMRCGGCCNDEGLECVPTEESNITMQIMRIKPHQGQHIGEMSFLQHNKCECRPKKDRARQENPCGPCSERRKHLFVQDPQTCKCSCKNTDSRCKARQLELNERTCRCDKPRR
The assay is described as follows: competition ELISA: human VEGFR1 (Fc tag) coated, antibody mixed with biotinylated human VEGF, streptavidin-HRP. As to the method:
(§2) ELISA plates were respectively coated with 2 μg/mL human VEGFR1 and 5 μg/mL human VEGFR2 (in-house constructed and expressed, Fc tag) overnight, washed and blocked. […] Then the plates were added with HRP-labeled streptavidin and incubated for 1 hour. After TMB solution was added for color development, the OD450 nm absorbance value was read on a microplate reader.

Assay [8] has as its target T5, biotin-labeled human VEGF (ACRO, …). Put plainly: competition ELISA: human VEGFR2 (Fc tag) coated, antibody mixed with biotinylated human VEGF, streptavidin-HRP. How it is done:
as §2

In assay [9] the target is T1, human PD-1 (ACRO, His tag). Put plainly: dual (bridging) ELISA: human PD-1 (His tag) coated, antibody, then biotinylated human VEGF, streptavidin-HRP. As to the method:
The order of the binding to VEGF and PD-1 was changed for dual ELISA detection. A 96-well ELISA plate was coated with 1 μg/mL human PD-1 (ACRO, His tag) overnight, washed and blocked for 1 hour. […] TMB solution was added for color development, and the OD450 nm absorbance value was read on a microplate reader.

T1 sequence (Q15116 25-167 limits assumed): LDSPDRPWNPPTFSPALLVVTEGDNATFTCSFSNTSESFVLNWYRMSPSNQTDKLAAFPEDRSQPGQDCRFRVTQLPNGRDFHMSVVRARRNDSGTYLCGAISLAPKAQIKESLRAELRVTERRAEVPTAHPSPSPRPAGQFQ

B1: AK112 analog (bispecific antibody, human IgG1, kappa)
heavy: EVQLVESGGGLVQPGGSLRLSCAASGYTFTNYGMNWVRQAPGKGLEWVGWINTYTGEPTYAADFKRRFTFSLDTSKSTAYLQMNSLRAEDTAVYYCAKYPHYYGSSHWYFDVWGQGTLVTVSSASTKGPSVFPLAPSSKSTSGGTAALGCLVKDYFPEPVTVSWNSGALTSGVHTFPAVLQSSGLYSLSSVVTVPSSSLGTQTYICNVNHKPSNTKVDKKV[human IgG1 Fc with changes left out]GGGGSGGGGSGGGGSGGGGSEVQLVESGGGLVQPGGSLRLSCAASGFAFSSYDMSWVRQAPGKGLDWVATISGGGRYTYYPDSVKGRFTISRDNSKNNLYLQMNSLRAEDTALYYCANRYGEAWFAYWGQGTLVTVSSGGGGSGGGGSGGGGSGGGGSDIQMTQSPSSMSASVGDRVTFTCRASQDINTYLSWFQQKPGKSPKTLIYRANRLVSGVPSRFSGSGSGQDYTLTISSLQPEDMATYYCLQYDEFPLTFGAGTKLELK
light: DIQMTQSPSSLSASVGDRVTITCSASQDISNYLNWYQQKPGKAPKVLIYFTSSLHSGVPSRFSGSGSGTDFTLTISSLQPEDFATYYCQQYSTVPWTFGQGTKVEIKRTVAAPSVFIFPPSDEQLKSGTASVVCLLNNFYPREAKVQWKVDNALQSGNSQESVTEQDSKDSTYSLSSTLTLSKADYEKHKVYACEVTHQGLSSPVTKSFNRGEC
notes: Prepared in-house; bispecific antibody targeting PD-1 and VEGF; its anti-VEGF part is a Bevacizumab antibody fragment; also called control AK112 analog
Broadly, the EC50 is the concentration giving half of the maximal effect. One may read the IC50 as the midpoint of a concentration-inhibition curve. B1: the “maximum inhibition rate (HUVEC proliferation)” value in assay [1] is ~40%. Further, the half-maximal effective concentration (EC50) came out at 0.528 nM in [2]; 0.64 nM in assay [3]; 1.7 nM in [4]; 0.254 nM in [5]; 0.634 nM in assay [9]. For the same molecule, the “TOP OD” value is 2.19 OD450 in assay [2], 2.68 OD450 in assay [3], 2.56 OD450 in assay [4] and 3.42 OD450 in assay [9]. The values for the IC50 in assay [6], in assay [7] and in [8] were 2.9 nM, 4.61 nM and 6.48 nM, respectively.

The record behind these values is patent US20260055173A1 (published 2026).
